According to publication PMC4336329 (PLoS ONE, 2015):
Among all 310,000 compounds or so, about 2,200 (0.71%) showed an effect of 50% or more. Effects have a minus sign here. The list shows a part of the results.

target: human ether-à-go-go-related gene (hERG) potassium channel (human, UniProt Q12809); assay: primary screen, population patch clamp on CHO cells stably expressing hERG
Sequence (Q12809 whole entry, looked up): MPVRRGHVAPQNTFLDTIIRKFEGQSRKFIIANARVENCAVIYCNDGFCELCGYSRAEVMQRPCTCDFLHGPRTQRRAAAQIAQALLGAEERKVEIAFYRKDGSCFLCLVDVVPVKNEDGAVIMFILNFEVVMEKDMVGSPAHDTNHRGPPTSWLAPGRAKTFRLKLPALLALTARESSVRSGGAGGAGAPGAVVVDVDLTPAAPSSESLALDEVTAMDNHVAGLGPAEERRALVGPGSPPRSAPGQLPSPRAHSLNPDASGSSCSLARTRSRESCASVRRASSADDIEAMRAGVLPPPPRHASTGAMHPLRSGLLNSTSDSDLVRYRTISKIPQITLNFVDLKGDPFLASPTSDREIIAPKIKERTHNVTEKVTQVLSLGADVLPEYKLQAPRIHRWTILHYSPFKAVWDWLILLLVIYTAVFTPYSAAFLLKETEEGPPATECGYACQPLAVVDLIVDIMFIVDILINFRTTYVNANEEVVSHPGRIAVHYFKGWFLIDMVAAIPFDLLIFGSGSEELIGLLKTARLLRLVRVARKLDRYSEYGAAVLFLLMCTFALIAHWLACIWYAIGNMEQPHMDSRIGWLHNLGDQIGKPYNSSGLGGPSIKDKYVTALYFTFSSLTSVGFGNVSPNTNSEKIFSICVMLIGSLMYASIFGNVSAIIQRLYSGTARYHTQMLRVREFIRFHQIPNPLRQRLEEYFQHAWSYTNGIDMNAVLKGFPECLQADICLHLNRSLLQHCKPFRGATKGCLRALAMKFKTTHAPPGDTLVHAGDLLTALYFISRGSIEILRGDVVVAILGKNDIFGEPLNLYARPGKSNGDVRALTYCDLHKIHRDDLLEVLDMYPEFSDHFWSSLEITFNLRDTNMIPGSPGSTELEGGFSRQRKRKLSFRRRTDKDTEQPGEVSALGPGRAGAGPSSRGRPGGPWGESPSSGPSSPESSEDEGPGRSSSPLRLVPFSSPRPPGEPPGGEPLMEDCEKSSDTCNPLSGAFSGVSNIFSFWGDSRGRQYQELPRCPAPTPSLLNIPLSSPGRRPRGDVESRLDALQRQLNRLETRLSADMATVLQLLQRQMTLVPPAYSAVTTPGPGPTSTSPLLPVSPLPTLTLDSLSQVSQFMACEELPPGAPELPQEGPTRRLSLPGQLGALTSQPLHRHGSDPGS

Row | Structure (SMILES) | hERG current change (%, negative = inhibition) at 1uM [%]
1 | Cc1cccnc1NC(=S)Nc1ncccc1C | 13.3
2 | CCOc1ccc(S(=O)(=O)Nc2ccc(C(=O)NCC(c3ccco3)N3CCCCC3)cc2)cc1 (centres unmarked) | 16.3
3 | CCn1c(SCC(=O)N2CCOCC2)nnc1-c1ccco1 | 6.09
4 | O=C(COc1ccccc1)NNC(=S)NC(=O)c1ccccc1 | 12.1
5 | Cc1cc(C)c(NC(=O)COC(=O)C2CCC(=O)N2)c(C)c1 (centres unmarked) | -4.44
6 | CS(=O)(=O)N(CC(=O)NCc1cccnc1)Cc1ccc(Cl)cc1 | -10.8
7 | Cc1cccc(CSc2ncnc3c2cnn3Cc2ccccc2)c1 | 15.9
8 | CC(C)C(NC(=O)c1ccccc1)C(=O)OCC(=O)N1CCCCC1 (centres unmarked) | 22.3
9 | COc1cccc(OC)c1C(=O)OCC(=O)N(C)c1ccccc1 | 11.7
10 | COc1ccc(CC(=O)Nc2ccc(F)c(F)c2F)cc1S(=O)(=O)N1CCOCC1 | 1.54
11 | CC(C)CNC(=O)C1CCN(c2ccc(S(=O)(=O)N3CCOCC3)cc2)CC1 | -0.364
12 | COC(=O)c1cc(NC(=S)NC(=O)c2ccccc2)ccc1N1CCOCC1 | 3.62
13 | Cc1ccccc1C(=O)N(CC(=O)Nc1sc(C)c(C)c1C(N)=O)C1CCCC1 | 7.19
14 | CCN(CC)CCCN1CC(O)=C(c2nc3ccccc3s2)C1=N | -4.97
15 | COC(=O)c1c(NC(=O)Cc2cccs2)sc(C)c1C | -11.3
16 | COc1ccc2oc(C(=O)OCC(=O)NCCc3ccc(S(N)(=O)=O)cc3)c(C)c2c1 | 24.6
17 | Cc1ccc(/C=C2/C(=N)N3N=C(CC(=O)N4CCCC4)SC3=NC2=O)cc1 | 12.1
18 | O=C1c2ccccc2CN1CCNS(=O)(=O)c1ccc2ccccc2c1 | 2.77
19 | CCn1c(SCC(=O)Nc2ccc3[nH]c(=O)[nH]c3c2)nnc1-c1ccccc1 | 0.517
20 | CCNc1nc(NC(C)C)nc(N(C#N)C(C)C(=O)N(CC)CC)n1 (centres unmarked) | 4.95
21 | CCCCNC(=S)NC(C)(C)CO | 10.1
22 | COCCn1c(C2CCCCC2)nc2sc3ccccc3c(=O)c2c1=O | 5.12
23 | Cc1ccc(S(=O)(=O)NCCCNS(=O)(=O)c2ccccc2)cc1 | 3.78

Row | Structure (SMILES) | hERG current change (%, negative = inhibition) at 1uM [%]
24 | Clc1ccc(-c2onc3c2CCCC3)cc1 | 11
25 | Cc1ccc(Sc2ncccc2/C=N/O)cc1 | 3.26
26 | CC(C)(C)N(Cc1ccccc1)C(=O)COc1cccnc1[N+](=O)[O-] | 14.4
27 | Cc1cc2c(cc1S(=O)(=O)NCc1ccc(N(C)C)cc1)OCC(=O)N2 | -6.92
28 | CCn1cc(CN2CCC(n3nccc3NC(=O)CCOc3ccccc3)CC2)c(C)n1 | 15.4
29 | COc1ccc(C(C(=O)NCC2CCCO2)N(Cc2ccccc2)C(=O)c2snc(C(N)=O)c2N)cc1OC (centres unmarked) | 8.92
30 | COCCCN(C(=S)Nc1cccc(Cl)c1)C(C)c1ccncc1 (centres unmarked) | -0.116
31 | CCOC(=O)C1(Cc2cccc(F)c2)CCN(CCCn2cccn2)CC1 | -51.2
32 | COc1ccc(CN(C(=O)c2snc(C(N)=O)c2N)C(C(=O)NC(C)(C)C)c2ccco2)cc1 (centres unmarked) | 3.06
33 | NC(=O)[C@@H]1CCCN1Cc1nc(Cc2ccccc2Cl)no1 | 4.87
34 | CC(C)CCNC(=O)C1CCC(CNS(=O)(=O)c2ccc(Cl)cc2)CC1 (centres unmarked) | 16.2
35 | CCc1nccn1S(=O)(=O)c1ccc(C)c(C)c1 | 4.29
36 | Cc1c(C(=O)NCc2ccco2)oc2c(Cl)cccc12 | 20.8
37 | CCOc1ccc(N2C(=O)S/C(=C\c3ccc(O)c(OC)c3)C2=O)cc1 | -3.85
38 | N#CCc1ccc(C(=O)c2ccccc2)s1 | 5.58
39 | Cc1ccc(CSCC2Nc3ccc(C(=O)N4CCN(c5cccc(C)c5)C(C)C4)cc3NC2=O)cc1 (centres unmarked) | 23.1
40 | O=C(NCCOc1ccccc1F)c1cc([N+](=O)[O-])ccc1N1CCOCC1 | -9.33
41 | Cc1ccc(Cl)c(OCC(=O)OCC(=O)NC2CCCc3ccccc32)c1 (centres unmarked) | 6.96
42 | Cc1nnc(Sc2nc3c(c(=O)[nH]c(=O)n3C)n2CCc2ccccc2)s1 | 1.69
43 | Cc1ccccc1C(O)c1ccncc1 (centres unmarked) | 10.5
44 | CCO[C@H]1OC(C(=O)NCc2nc3ccccc3[nH]2)=C[C@@H](c2ccc3c(c2)OCO3)[C@@H]1CCCO | 0.543
45 | Cc1ccc(S(=O)(=O)N2CCOCC2)cc1NC(=O)COC(=O)c1ccc(OCc2c(C)noc2C)cc1 | -0.389
46 | CCCCC(=O)NC(NC(=S)N1CCCCCC1)C(Cl)(Cl)Cl (centres unmarked) | 12.4

Row | Structure (SMILES) | hERG current change (%, negative = inhibition) at 1uM [%]
47 | Cc1ccc(C(=O)N2CCN(Cc3nc4sc5c(c4c(=O)[nH]3)CCCC5)CC2)cc1 | -36.9
48 | Cc1nccnc1Sc1ccccc1 | 8.26
49 | CCc1nnc(NC(=O)CSc2nnc(C)n2Cc2ccccc2)s1 | 1.89
50 | COc1cc(-n2c(=O)c3ccccc3n(Cc3ccccc3)c2=O)cc(OC)c1OC | 4.49
51 | Fc1cccc(Cc2noc(CN3CCOCC3)n2)c1 | 10.8
52 | CCN1C(=O)c2ccc(C(=O)NCc3ccco3)cc2C1=O | 11
53 | Cc1ccc(CN2CCN(Cc3cccn3-c3ccc(Cl)cn3)CC2CCO)o1 (centres unmarked) | 0.259
54 | CCN(CC)CCCN(C(=O)c1ccccc1F)c1nc(-c2ccc(OC)cc2)cs1 | -28.8
55 | CCCC(=O)c1ccc(N2CCC(C)CC2)c(F)c1 | 2.18
56 | COCCN(C(=O)COc1ccccc1)c1nnc(-c2cccnc2)s1 | 6.25
57 | CCOc1ccc(NC(=O)CSc2nc(N)c(-c3ccccc3)c(=O)[nH]2)cc1 | 9.49
58 | C/C(N)=C(/C#N)C(=O)CSc1nncn1-c1ccccc1 | 12.4
59 | O=C(c1cc(COc2c(F)cccc2F)on1)N1CCN(C2CCCCC2)CC1 | -0.235
60 | O=C1CCN(Cc2ccc(Br)cc2)CCN1[C@H](CO)c1ccccc1 | 9.52
61 | Fc1cccc(CSc2ccc3nnc(-c4ccccn4)n3n2)c1 | -50.2
62 | Cc1[nH]c2ccccc2c1/C=N/Nc1ccc([N+](=O)[O-])cc1 | 5.5
63 | COC1(OC)C(/C=C/c2ccc(Cl)cc2)C(C#N)(C#N)C1(OC)OC (centres unmarked) | 8.36
64 | CCN1CCN(C(=O)c2ccc3nc(-c4ccccc4)c(-c4ccccc4)nc3c2)CC1 | 6.96
65 | Cc1cc(C)c2c(=O)[nH]cnc2n1 | 1.94
66 | COc1ccc(-c2nc(CC(=O)Nc3cccc(S(=O)(=O)NC4=NCCC4)c3)cs2)cc1 | 16.5
67 | N#Cc1ncc(C(F)(F)F)cc1Oc1cccnc1 | 5.55
68 | Nn1c(Cc2cccc3ccccc23)nnc1SCc1ccccc1 | 10.2
69 | Fc1ccccc1-c1nnc2ccc3ccccc3n12 | 9.87

Row | Structure (SMILES) | hERG current change (%, negative = inhibition) at 1uM [%]
70 | Fc1cc(Br)ccc1Nc1nc2ccccc2n2nnnc12 | 5.3
71 | Cl.O=C(CN1CCN(c2ncccn2)CC1)NCCC1=CCCCC1 | 5.16
72 | COC(=O)c1ccccc1NC(=S)NC(=O)c1cccc2ccccc12 | 7.96
73 | O=C(N/N=C/c1ccccc1O)c1cc[n+]([O-])cc1 | 9.42
74 | CCOC(=O)c1sc(=S)n(Cc2ccccc2)c1N | 8.2
75 | Oc1ccc(/C=N/N2CCCCC2)cc1O | 14.2
76 | CCOc1ccccc1NC(=O)CCN1CCN(S(=O)(=O)c2ccc(OC)cc2)CC1 | 2.22
77 | Cc1cc(SC(C)C(=O)Nc2ncc(Cl)cc2Cl)nc2ccccc12 (centres unmarked) | 12.1
78 | CC(=O)Nc1ccc(NC(=O)CN(C)CC(=O)Nc2ccccc2Br)cc1 | 4.27
79 | COc1cccc(N2CC(C)Cn3c2nc2c3c(=O)[nH]c(=O)n2C)c1 (centres unmarked) | 4.5
80 | Cc1ccc(-c2nc(CS(=O)(=O)CC(=O)N3CCCCCC3)c(C)o2)cc1 | 5.45
81 | COC(=O)c1ccc(NC(=O)c2ccc[n+]([O-])c2)cc1 | 13.1
82 | N#Cc1nc(-c2ccco2)oc1N1CCN(c2ccccc2)CC1 | -25.8
83 | CCCCn1c(N)c(N(CCOC)C(=O)c2ccc(S(=O)(=O)N3CCCCCC3)cc2)c(=O)[nH]c1=O | 8.4
84 | Cc1ccc([N+](=O)[O-])cc1S(=O)(=O)NCc1cccnc1 | 2.16
85 | Cc1cc(C)cc(NC(=S)NCCc2c[nH]c3ccccc23)c1 | 0.452
86 | O=C(CSC1=Nc2ccccc2C2=NC(CC(=O)N3CCN(c4ccccc4)CC3)C(=O)N12)NCC1CCCO1 (centres unmarked) | 10.3
87 | NS(=O)(=O)c1ccc(N/N=C2/CCCCC2C2CCCCC2)c([N+](=O)[O-])c1 (centres unmarked) | 14.4
88 | Cc1ccc(NC(=O)CSc2nnc(CNC(=O)c3ccco3)n2C)cc1C | 4.25
89 | COc1ccc(S(=O)(=O)N(CC(=O)NCC2CCCO2)C2CCCCC2)cc1OC (centres unmarked) | 13.4
